Where “and” joins values, the source holds several entries; their conditions need not be identical. Equal entries are not always repeated. Whole data set: some 5,300 compounds, median “PER2::LUC luminescence relative to vehicle control” near 0.96, cut for the highest 2% near 1.3. Some of the results follow.
Test system: mPer2Luc MEF
Assay: PER2::LUC luminescence relative to vehicle control (fold of vehicle); higher = higher PER2::LUC reporter signal
Details: 10 µM
Method in brief: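 Mouse embryonic fibroblasts carrying the mPer2Luc reporter were seeded at ~3000 cells per well in 384-well plates, 48 h before compounds from commercial libraries were added at 10 μM. Cells were grown in DMEM with 10% FBS at 37 °C and 5% CO2. Luminescence was read with the ONE-Glo luciferase assay system 24 h and 30 h after treatment, followed by an alamarBlue viability assay. The value is PER2::LUC luminescence as fold of vehicle control.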

SMILES: Cc1ccccc1C(=O)Nc1ccc(C(=O)N2CCCC(N(C)C)c3ccccc32)cc1 (configuration not stated)
- PER2::LUC luminescence (time after treatment 24 h): 0.95
- PER2::LUC luminescence (time after treatment 30 h): 1

SMILES: Cc1cccc(-c2[nH]ncc2-c2ccc3ncccc3n2)n1
- PER2::LUC luminescence (time after treatment 24 h): 0.816
- PER2::LUC luminescence (time after treatment 30 h): 0.627

SMILES: CC1=CC2C(CC1=O)C(C)=CCC2C(C)C (configuration not stated)
- PER2::LUC luminescence (time after treatment 24 h): 0.962
- PER2::LUC luminescence (time after treatment 30 h): 0.981

SMILES: O=C(NCCCNc1nc(Nc2cccc(NC(=O)N3CCCC3)c2)ncc1I)c1cccs1
- PER2::LUC luminescence (time after treatment 24 h): 0.389
- PER2::LUC luminescence (time after treatment 30 h): 0.302

SMILES: N=C(CC(O)COc1ccccc1-c1ccccc1)N1CCCCC1 (configuration not stated)
- PER2::LUC luminescence (time after treatment 24 h): 0.648
- PER2::LUC luminescence (time after treatment 30 h): 0.844

SMILES: CN(Cc1ccc(C(C)(C)C)cc1)Cc1cccc2ccccc12
- PER2::LUC luminescence (time after treatment 24 h): 0.911
- PER2::LUC luminescence (time after treatment 30 h): 1.04

SMILES: NCCCCN
- PER2::LUC luminescence (time after treatment 24 h): 0.884
- PER2::LUC luminescence (time after treatment 30 h): 0.911

SMILES: COc1cc2c(cc1OC)[C@@H]1C(=O)c3ccc4c(c3O[C@@H]1CO2)C=CC(C)(C)O4
- PER2::LUC luminescence (time after treatment 24 h): 0.176
- PER2::LUC luminescence (time after treatment 30 h): 0.244

SMILES: NCc1ccc(C(=O)O)cc1
- PER2::LUC luminescence (time after treatment 24 h): 1.06
- PER2::LUC luminescence (time after treatment 30 h): 1

SMILES: S=c1[nH]cnc2nc[nH]c12
- PER2::LUC luminescence (time after treatment 24 h): 0.814 and 0.755
- PER2::LUC luminescence (time after treatment 30 h): 0.655 and 0.623

SMILES: C=C(C)[C@@H]1CC[C@]2(C)CC[C@]3(C)[C@H](CC[C@@H]4[C@@]5(C)CC[C@H](O)C(C)(C)[C@@H]5CC[C@]43C)[C@@H]12
- PER2::LUC luminescence (time after treatment 24 h): 1.15
- PER2::LUC luminescence (time after treatment 30 h): 1.06

SMILES: CCCCCCCCNC(C)C(O)c1ccc(SC(C)C)cc1 (configuration not stated)
- PER2::LUC luminescence (time after treatment 24 h): 0.741
- PER2::LUC luminescence (time after treatment 30 h): 0.727

SMILES: CC(=O)CC(c1ccc([N+](=O)[O-])cc1)c1c(O)c2ccccc2oc1=O (configuration not stated)
- PER2::LUC luminescence (time after treatment 24 h): 0.967
- PER2::LUC luminescence (time after treatment 30 h): 0.923

SMILES: C[C@H]1O[C@@H](O[C@H]2[C@@H](O)C[C@H](O[C@H]3[C@@H](O)C[C@H](O[C@H]4CC[C@@]5(C)[C@H](CC[C@@H]6[C@@H]5CC[C@]5(C)[C@@H](C7=CC(=O)OC7)CC[C@]65O)C4)O[C@@H]3C)O[C@@H]2C)C[C@H](O)[C@@H]1O
- PER2::LUC luminescence (time after treatment 24 h): 0.856
- PER2::LUC luminescence (time after treatment 30 h): 0.66

SMILES: NS(=O)(=O)c1ccc(NC(=O)Nc2ccc(F)cc2)cc1
- PER2::LUC luminescence (time after treatment 24 h): 0.923
- PER2::LUC luminescence (time after treatment 30 h): 0.905

SMILES: C[C@H](NC(=O)CCc1nc2ccccc2c(=O)[nH]1)c1ccccc1
- PER2::LUC luminescence (time after treatment 24 h): 0.998
- PER2::LUC luminescence (time after treatment 30 h): 0.986

SMILES: NCC(=O)CCC(=O)O
- PER2::LUC luminescence (time after treatment 24 h): 0.963 and 0.878
- PER2::LUC luminescence (time after treatment 30 h): 1.01 and 0.932

SMILES: COc1ccc(CNc2nc(N(CCO)CCO)nc3c2ncn3C(C)C)cc1
- PER2::LUC luminescence (time after treatment 24 h): 0.6
- PER2::LUC luminescence (time after treatment 30 h): 0.774

SMILES: NC(=O)c1ccc[n+]([C@@H]2O[C@H](COP(=O)([O-])OP(=O)(O)OC[C@H]3O[C@@H](n4cnc5c(N)ncnc54)[C@H](O)[C@@H]3O)[C@@H](O)[C@H]2O)c1
- PER2::LUC luminescence (time after treatment 24 h): 0.815 and 0.843
- PER2::LUC luminescence (time after treatment 30 h): 1.03 and 0.854

SMILES: CN1CCC(CNc2ccc3ncc(-c4cccc(OC(F)(F)F)c4)n3n2)CC1
- PER2::LUC luminescence (time after treatment 24 h): 0.259
- PER2::LUC luminescence (time after treatment 30 h): 0.368

SMILES: COc1c2ccoc2cc2oc(C)cc(=O)c12
- PER2::LUC luminescence (time after treatment 24 h): 0.992
- PER2::LUC luminescence (time after treatment 30 h): 0.989

SMILES: Cc1ccc(Sc2ccccc2N2CCNCC2)c(C)c1
- PER2::LUC luminescence (time after treatment 24 h): 0.563 and 0.516
- PER2::LUC luminescence (time after treatment 30 h): 0.652 and 0.612

SMILES: Cc1cc2c(OCC(CNC(C)(C)C)OC(=O)c3ccccc3)cccc2[nH]1 (configuration not stated)
- PER2::LUC luminescence (time after treatment 24 h): 1.06
- PER2::LUC luminescence (time after treatment 30 h): 0.999

SMILES: O=C(Nc1ccccc1)N[C@@H]1C[C@@H](C(=O)O)Nc2cc(Cl)cc(Cl)c21
- PER2::LUC luminescence (time after treatment 24 h): 1.06
- PER2::LUC luminescence (time after treatment 30 h): 0.947

SMILES: COc1ccc(CN(CCN(C)C)c2ncccn2)cc1
- PER2::LUC luminescence (time after treatment 24 h): 0.863
- PER2::LUC luminescence (time after treatment 30 h): 1.03

SMILES: N=C(N)SCCc1ccc(CCSC(=N)N)cc1
- PER2::LUC luminescence (time after treatment 24 h): 0.935
- PER2::LUC luminescence (time after treatment 30 h): 1.08

SMILES: COC(=O)c1c(C)c2c(c(C)c1O)OC(=O)c1c(C)c(Cl)c(O)c(Cl)c1O2
- PER2::LUC luminescence (time after treatment 24 h): 1.03
- PER2::LUC luminescence (time after treatment 30 h): 0.921

SMILES: O=c1[nH]c2cc(Cl)ccc2c(O)c1-c1cccc(Oc2ccccc2)c1
- PER2::LUC luminescence (time after treatment 24 h): 0.996
- PER2::LUC luminescence (time after treatment 30 h): 0.891

SMILES: Cc1ccc(C)c(OCCCC(C)(C)C(=O)O)c1
- PER2::LUC luminescence (time after treatment 24 h): 1.09
- PER2::LUC luminescence (time after treatment 30 h): 1.21

SMILES: O=C(O)C[C@H](O)C[C@H](O)/C=C/c1c(C2CC2)nc2ccccc2c1-c1ccc(F)cc1
- PER2::LUC luminescence (time after treatment 24 h): 0.653 and 0.335
- PER2::LUC luminescence (time after treatment 30 h): 0.528 and 0.411

SMILES: O=C(CCCN1CCC(O)(c2ccc(Cl)cc2)CC1)c1ccc(F)cc1
- PER2::LUC luminescence (time after treatment 24 h): 0.822 and 0.754
- PER2::LUC luminescence (time after treatment 30 h): 1.14 and 0.661

SMILES: COc1cc2c(cc1OC)[C@@H]1Cc3ccc(OC)c(OC)c3CN1CC2
- PER2::LUC luminescence (time after treatment 24 h): 0.985
- PER2::LUC luminescence (time after treatment 30 h): 1.01

SMILES: N[C@](CCCCB(O)O)(CCN1CCCCC1)C(=O)O
- PER2::LUC luminescence (time after treatment 24 h): 1.07
- PER2::LUC luminescence (time after treatment 30 h): 1.08

SMILES: CC1(C)[C@@H](O)CC[C@]2(C)[C@H]3C(=O)C=C4[C@@H]5C[C@@](C)(C(=O)O)CC[C@]5(C)CC[C@@]4(C)[C@]3(C)CC[C@@H]12
- PER2::LUC luminescence (time after treatment 24 h): 1.22 and 0.966
- PER2::LUC luminescence (time after treatment 30 h): 1.5 and 0.907

SMILES: COC(=O)[C@@H](N)Cc1ccc(O)c(O)c1
- PER2::LUC luminescence (time after treatment 24 h): 0.941
- PER2::LUC luminescence (time after treatment 30 h): 0.816

SMILES: COc1ccc2c(c1)c(CC(=O)O)c(C)n2Cc1ccc(Cl)cc1
- PER2::LUC luminescence (time after treatment 24 h): 0.942
- PER2::LUC luminescence (time after treatment 30 h): 0.921

SMILES: C[C@]12CCC(=O)C=C1C=C[C@@H]1[C@@H]2CC[C@@]2(C)[C@H]1CC[C@@]21CCC(=O)O1
- PER2::LUC luminescence (time after treatment 24 h): 0.937
- PER2::LUC luminescence (time after treatment 30 h): 0.958

SMILES: C[C@H]1COC2(CCN(c3nc(=O)c4cc(C(F)(F)F)cc([N+](=O)[O-])c4s3)CC2)O1 (racemic)
- PER2::LUC luminescence (time after treatment 24 h): 1.32
- PER2::LUC luminescence (time after treatment 30 h): 1.39

SMILES: Nc1ccccc1NC(=O)CCCCCC(=O)Nc1ccccc1
- PER2::LUC luminescence (time after treatment 24 h): 0.675
- PER2::LUC luminescence (time after treatment 30 h): 0.932

SMILES: Nc1ccncc1N
- PER2::LUC luminescence (time after treatment 24 h): 1.02
- PER2::LUC luminescence (time after treatment 30 h): 0.965

SMILES: C[C@@H]1O[C@@H](OC[C@H]2O[C@@H](Oc3cc(O)c4c(c3)O[C@H](c3ccc(O)c(O)c3)CC4=O)[C@H](O)[C@@H](O)[C@@H]2O)[C@H](O)[C@H](O)[C@H]1O
- PER2::LUC luminescence (time after treatment 24 h): 1.05
- PER2::LUC luminescence (time after treatment 30 h): 1
